This is one part of the list.
test system: PF3D7_0420300 AP2 domain 1 (GST-tagged); assay: gcPBM binding intensity (ln(normalized median fluorescence intensity)); higher = stronger DNA binding
Method in brief: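 GST-fused DNA-binding domains of P. falciparum, expressed in E. coli, were applied at about 25 μg on average for 1 h to an Agilent 4 × 180k array of primer-extended double-stranded 36-bp intergenic genomic probes and negative controls. Binding intensity is the highest Masliner-normalised natural-log median intensity across replicate spots of either probe orientation, measured with Alexa488 anti-GST antibody and a 488 nm scan.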

| Sequence | gcPBM binding intensity (ln) |
| --- | --- |
| TTTTCCTTTTTGGAATGTACACATATATATTAAATG [XGTACX_site4700] | 9.02 |
| AAGAATAATAACAAATGTACTTATATAAAGTATTAT [XGTACX_site2336] | 9.3 |
| TAATTAAATATTTTCCTACAATTAATAAGAAAAGGA [XGTACX_negctrl_site565] | 8.93 |
| TATTAAGAAGAAAATTCACACATTTGTACCTCTCTT [CACACA_site4822] | 9.13 |
| CAGCTCTTAAAAATTACACACATATACGCATATATA [CACACA_site3267] | 9.54 |
| GAAAATAGCTAAAATACACACAATTAAAAGTTATTA [CACACA_site7614] | 9.56 |
| TTACAAAAATGTGGTTGTACACAAACAAAAAAAATA [XGTACX_site8506] | 9.4 |
| TATAAATAGATATATACACACATGAAAATAAATAAA [CACACA_site7228] | 9.78 |
| TTTTTTTTTTTTTTTGCACACTTGATTTGAGCTTAT [CACACA_site4042] | 8.93 |
| TTTTTTTTTGTTTACACACCCAAATCACATACATAT [CACACA_site4052] | 9.5 |
| AAAATAAAAATACACATTTTTTTTTTTTTTTTTTTT [TGCATGCA_negctrl_site515] | 9.32 |
| TAAATAATTTATAAGTGTACTATTATTGCACGAATA [XGTACX_site7715] | 9.1 |
| AAAAAAAACAGACACACACACATAAATATATATAAA [CACACA_site148] | 10 |
| CATTAGGTCTTTTGTACATGCAAGTGTGTGCGTAAA [TGCATGCA_site255] | 9.36 |
| ATGATTTTTTCTGTATGTACATAAAAATAAAATTCT [XGTACX_site5698] | 9 |
| TTGTTTATTTTTTATTACTATAAAGATGTTATATAT [CACACA_negctrl_site1506] | 9.16 |
| TATATAAATATATATGTACACACATATACATGTTGA [CACACA_site9022] | 9.47 |
| ATAATATCTTTATGTGTGCACATATATATATATATA | 9.65 |
| AAAAAAAAAAAAAAATGTACAAATAGTAGTTACAGA [XGTACX_site2531] | 9.39 |
| AACATGTTAAAATAAACACACAGCTAAGGTTTTTTT [CACACA_site157] | 9.42 |
| ATAATATATGTATATCCACACACATATATATATATA [CACACA_site8471] | 9.57 |
| ATTTAAGATTTAATCACACACATATATATTATATAC [CACACA_site2907] | 9.49 |
| GCAAATGTGAAAACGTGTACACATTTTATTTAATTT [XGTACX_site8000] | 9.19 |

| Sequence | gcPBM binding intensity (ln) |
| --- | --- |
| TATTTGTAAATCGATACACACATATATATTAATATA [CACACA_site196] | 9.47 |
| AAATGTAGATATTATCGTACACATATATTTATATAT [XGTACX_site6326] | 9.27 |
| ACACATATGCATATATGTACATAATATATTAAACTT [XGTACX_site5975] | 9.38 |
| TAAAAAATAAATATATGTACGCAATAAATGTGTTAA [XGTACX_site4043] | 9.28 |
| AAAAAAAAAAGACACACACACACACTAATACATACA [CACACA_site6473] | 10.2 |
| ATACCTATTTGATGAGTGCATTATCCAATATATGTA | 9.2 |
| AAATATATATGTATATGTACTTATTTATTTAAAAGG [XGTACX_site4093] | 9.05 |
| TTTATTATATATAAAAGTACACATTGTAAGGAAACA [XGTACX_site8560] | 9.37 |
| AAAAGTGATGAGACAAGTACTAACATATTATTATTA [XGTACX_site1533] | 9.33 |
| TTTTCTGTATAAACTTGTACATATATTTCCTTGTTT [XGTACX_site5745] | 9.44 |
| ATGTTTTACAAAAACACACAAATGAATATAAACATA [CACACA_site6667] | 9.33 |
| AAATAAAATATCAATTAAAACAGAATTGAATTTTTA [CACACA_negctrl_site181] | 9.02 |
| ATATGTTCTACAAAAAAGATGTCGATTTATTTTCTT [CACACA_negctrl_site1179] | 9.12 |
| AAAACAAAATAGGGAACACACACATGTCAATATATA [CACACA_site8834] | 10.1 |
| TTTCAAACTGTTCTCACACACGAAATTAGAAATGAA [CACACA_site4509] | 9.29 |
| TTTTTTTTTTTTTGGTTCACACTGAAAAGAGAGATA [GTGCAC_negctrl_site439] | 8.78 |
| CAATCATGGTTTTACACACACATGCATGTGAAAATT [CACACA_site4870] | 9.67 |
| TTTTGTTATTTTGAAGTGCACTTTCCACTTAATATA | 9.28 |
| TCATGTTTTACAAAAACACACAAATGAATATAAACA [CACACA_site4775] | 9.26 |
| TATATACATAGACACCCACACACAAAAAAAAAAAAA [CACACA_site8186] | 9.75 |
| TCGAATTTGGAAAGAAGTACATGAAGCCAACATATG [XGTACX_site5222] | 9.35 |
| AATAAATAAAAATTATGTACATATATAAAAAATACA [XGTACX_site8581] | 9.46 |

Reference: the supplement of paper PMC11417369
